Test results taken from US20130040882A1, “USE OF FIBROBLAST GROWTH FACTOR FRAGMENTS” (NOVARTIS AG, priority 2003, published 2013).

Test: Salmon calcitonin/PTS893 monkey study: haematology;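 note: haematology parameters were measured in blood collected from a peripheral vein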
Type: in vivo, cynomolgus monkeys (Macaca fascicularis)
Set-up: unit not given here
Conditions: females

**Q.** For “Leu8, Asp10, Lysll, A1a16, G1n18, Thr33, A1a34 human PTH 1-34 [PTS893, Leu8, Asp10, Lysll, A1a16, G1n18, Thr33, A1a34 human PTH 1-34 [hPTH(1-34)]]”, which “Haematology B” value (d7) is on record?
**A.** The value was 0.06 and 0.04 [columns of one line].

**Q.** What about the “Haematology HB” value (d7) of the same substance?
**A.** Its value is 11.7 and 12.1 [columns of one line].

**Q.** What about the “Haematology MCV” value (d7) of the same substance?
**A.** The value was 67 and 68 [columns of one line].

**Q.** And the “Haematology WBC” value (d7)?
**A.** Its value is 18.4 and 12.3 [columns of one line].

**Q.** And the “Haematology B” value (d13)?
**A.** Its value is 0.03 and 0.04 [columns of one line].

**Q.** And the “Haematology MCV” value (d13)?
**A.** Its value is 67 and 66 [columns of one line].

**Q.** And the “Haematology WBC” value (d13)?
**A.** The value was 13.2 and 10.1 [columns of one line].

**Q.** What about the “Haematology HB” value (d−8 (before dosing)) of the same substance?
**A.** The value was 13.4 and 12.9 [columns of one line].

**Q.** What about the “Haematology MCV” value (d−8 (before dosing)) of the same substance?
**A.** Its value is 63 and 64 [columns of one line].

**Q.** What about the “Haematology WBC” value (d−8 (before dosing)) of the same substance?
**A.** The value was 10.1 and 14.3 [columns of one line].

The source holds more than one record for some entries. This is not the full list of results. The source may hold further records. Results that share an entry seem to repeat one measurement on other runs, samples or individuals.
